One assay concerns HSkMC. The assay is described as follows: cytotoxicity call (relative viability < 0.9). The settings on record: 10 µM.
Another assay concerns HepG2. Briefly: cytotoxicity call (relative viability < 0.9). The settings on record: 10 µM.
A further assay concerns S. aureus RN4220. Briefly: growth inhibition call (relative growth <= 0.2). The settings on record: 50 µM.

Results on 27 compounds are retold here after the antibiotic and cytotoxicity screens of Wong et al. (2023).

This is one part of the list.

In the case of `C[C@H](NC(=O)C[C@H]1CC[C@H](NC(=O)CN2CCOCC2)[C@@H](CO)O1)c1ccccc1`, the cytotoxicity call in the assay with HSkMC and in the assay on HepG2 was “inactive” in each case. The growth inhibition call in the assay on S. aureus RN4220 was “inactive”.

For the compound `COc1ccc2c3c([nH]c2c1)[C@@H](CO)N(C[C@]13CN(C)C1)C(=O)CN1CCOCC1`, the cytotoxicity call in the assay on HSkMC and in the assay on HepG2 was “inactive” in each case. For the same compound, the growth inhibition call with S. aureus RN4220 is “inactive”.

Consider `CN(C)CCCNC(=O)C[C@@H]1CC[C@@H]2[C@H](COc3ccc(NS(C)(=O)=O)cc3C(=O)N2C)O1`, for which the cytotoxicity call with HSkMC and in the assay with HepG2 was “inactive” in each case. In the assay with S. aureus RN4220, the growth inhibition call was “inactive”.

`Cc1noc(C)c1NC(=O)N(C)C[C@@H]1OCCCC[C@@H](C)Oc2ccc(NC(=O)Nc3ccccc3)cc2C(=O)N([C@@H](C)CO)C[C@H]1C`: the cytotoxicity call with HSkMC and with HepG2 was “inactive” each time. The growth inhibition call with S. aureus RN4220 is “inactive”.

As to `C[C@H](CO)N1C[C@H](C)[C@@H](CN(C)CC2CCCCC2)Oc2ccc(NC(=O)CCN3CCOCC3)cc2C1=O`, the cytotoxicity call in the assay with HSkMC and with HepG2 was “inactive” throughout. The growth inhibition call in the assay with S. aureus RN4220 was “inactive”.

Turning to `C[C@@H]1CN([C@@H](C)CO)C(=O)c2cc(NC(=O)CCC(F)(F)F)ccc2O[C@@H](C)CCCCO[C@@H]1CN(C)C(=O)C1CCCCC1`, the cytotoxicity call in the assay with HSkMC and with HepG2 was “inactive” throughout. Moreover, the growth inhibition call in the assay with S. aureus RN4220 is “inactive”.

As to `C[C@@H]1CCCCO[C@H](CN(C)S(=O)(=O)c2ccc(F)cc2)[C@@H](C)CN([C@@H](C)CO)C(=O)c2cc(NC(=O)Nc3ccc(F)cc3)ccc2O1`, the cytotoxicity call with HSkMC and in the assay with HepG2 was “inactive” throughout. Besides, the growth inhibition call in the assay on S. aureus RN4220 is “inactive”.

As to `C[C@H]1CCCCO[C@@H](CN(C)C(=O)Nc2ccc(F)cc2)[C@@H](C)CN([C@@H](C)CO)C(=O)c2cc(NC(=O)Nc3ccccc3)ccc2O1`, the cytotoxicity call in the assay on HSkMC and in the assay on HepG2 was “inactive” each time. Moreover, in the assay with S. aureus RN4220, the growth inhibition call was “inactive”.

For the compound `COc1ccc(S(=O)(=O)Nc2ccc3c(c2)C(=O)N([C@@H](C)CO)C[C@H](C)[C@H](CN(C)S(C)(=O)=O)O3)cc1`, the cytotoxicity call with HSkMC and in the assay with HepG2 was “inactive” throughout. Moreover, the growth inhibition call in the assay with S. aureus RN4220 was “inactive”.

For the compound `C[C@@H]1CN([C@@H](C)CO)C(=O)c2cccc(NC(=O)Nc3ccc4c(c3)OCO4)c2O[C@H]1CN(C)C(=O)Nc1ccc(C(F)(F)F)cc1`, the cytotoxicity call in the assay with HSkMC and in the assay with HepG2 was “inactive” throughout. Also, the growth inhibition call in the assay on S. aureus RN4220 was “inactive”.

Regarding `CC1=C(C)C(=O)C(CCCCCCCCCC[P+](c2ccccc2)(c2ccccc2)c2ccccc2)=CC1=O`, the cytotoxicity call with HSkMC and with HepG2 was “active” throughout. The growth inhibition call in the assay on S. aureus RN4220 is “inactive”.

For the compound `C[C@H]1CN([C@@H](C)CO)C(=O)c2c(c3ccccc3n2C)-c2ccccc2CO[C@@H]1CN(C)S(=O)(=O)c1cn(C)cn1`, the cytotoxicity call in the assay with HSkMC and in the assay on HepG2 was “inactive” in each case. In addition, the growth inhibition call in the assay with S. aureus RN4220 was “inactive”.

On to `C[C@@H]1CN([C@@H](C)CO)C(=O)c2cc(NC(=O)CCCCCC(=O)Nc3ccccc3N)ccc2O[C@H]1CN(C)CC1CCCCC1`, for which the cytotoxicity call in the assay on HSkMC and in the assay on HepG2 was “inactive” in each case. The growth inhibition call in the assay with S. aureus RN4220 is “inactive”.

`Cc1ccc(S(=O)(=O)N(C)C[C@@H]2OCCCC[C@H](C)Oc3ccc(NS(C)(=O)=O)cc3C(=O)N([C@@H](C)CO)C[C@@H]2C)cc1`: the cytotoxicity call with HSkMC and with HepG2 was “inactive” in each case. Further, in the assay with S. aureus RN4220, the growth inhibition call is “inactive”.

Consider `C[C@H](CO)N1C[C@H](C)[C@@H](CN(C)S(=O)(=O)c2ccc(F)cc2)OCCCC[C@H](C)Oc2ccc(NC(=O)NC3CCCCC3)cc2C1=O`, for which the cytotoxicity call in the assay on HSkMC and in the assay on HepG2 was “inactive” in each case. For the same compound, the growth inhibition call with S. aureus RN4220 is “inactive”.

For `C[C@@H]1CCCCO[C@H](CN(C)S(=O)(=O)c2cccs2)[C@H](C)CN([C@H](C)CO)C(=O)c2cc(NC(=O)Nc3ccccc3)ccc2O1`, the cytotoxicity call in the assay on HSkMC and with HepG2 was “inactive” throughout. The growth inhibition call with S. aureus RN4220 was “inactive”.

Consider `Cc1ccccc1S(=O)(=O)N1C[C@H](O)COC[C@H]2O[C@H](CC(=O)NCc3ccccc3Cl)CC[C@@H]21`, for which the cytotoxicity call with HSkMC and in the assay on HepG2 was “inactive” throughout. In addition, the growth inhibition call in the assay on S. aureus RN4220 was “inactive”.

As to `C[C@@H]1CCCCO[C@@H](CN(C)Cc2ccc(C(=O)Nc3ccccc3N)cc2)[C@@H](C)CN([C@H](C)CO)C(=O)c2cc(NC(=O)Nc3ccc(C(F)(F)F)cc3)ccc2O1`, the cytotoxicity call in the assay with HSkMC was “active”. The cytotoxicity call with HepG2 is “inactive”. The growth inhibition call in the assay on S. aureus RN4220 is “inactive”.

With `O=C(C[C@H]1CC[C@H](NC(=O)Cc2ccccn2)[C@H](CO)O1)NCCCN1CCOCC1`, the cytotoxicity call in the assay with HSkMC and in the assay on HepG2 was “inactive” in each case. In the assay with S. aureus RN4220, the growth inhibition call was “inactive”.

Take `C[C@@H]1CN([C@@H](C)CO)C(=O)c2cc(NC(=O)CCC(F)(F)F)ccc2O[C@@H](C)CCCCO[C@@H]1CN(C)C(=O)Nc1ccc(F)cc1`: the cytotoxicity call with HSkMC and with HepG2 was “inactive” in each case. The growth inhibition call in the assay on S. aureus RN4220 was “inactive”.

`C[C@@H]1CN([C@H](C)CO)C(=O)CCCn2cc(nn2)CO[C@H]1CN(C)C(=O)Nc1ccc(C(F)(F)F)cc1`: the cytotoxicity call with HSkMC and in the assay with HepG2 was “inactive” throughout. Further, the growth inhibition call with S. aureus RN4220 is “active”.

On to `C[C@@H]1CN([C@H](C)CO)S(=O)(=O)c2ccc(C#Cc3ccccc3F)cc2O[C@@H]1CN(C)C(=O)Cc1ccncc1`, for which the cytotoxicity call in the assay on HSkMC (human skeletal muscle cells) and in the assay on HepG2 was “inactive” throughout. In addition, the growth inhibition call in the assay with S. aureus RN4220 was “inactive”.

As to `CC(C)CC#Cc1ccc2c(c1)O[C@H](CN(C)C(=O)Cc1ccccn1)[C@@H](C)CN([C@H](C)CO)S2(=O)=O`, the cytotoxicity call with HSkMC and in the assay on HepG2 was “inactive” in each case. Besides, the growth inhibition call with S. aureus RN4220 was “inactive”.

Take `Cl.Nc1ccn(C2OC(CO)C(O)C2(F)F)c(=O)n1` (stereo unspecified): the cytotoxicity call in the assay with HSkMC was “inactive”. For the same compound, the cytotoxicity call in the assay with HepG2 was “active”. The growth inhibition call in the assay on S. aureus RN4220 was “active”.

As for `C[C@H](CO)N1C[C@H](C)[C@@H](CN(C)CC2CCCCC2)Oc2c(NC(=O)c3nc4ccccc4s3)cccc2C1=O`, the cytotoxicity call in the assay with HSkMC and with HepG2 was “inactive” throughout. Further, the growth inhibition call in the assay on S. aureus RN4220 was “inactive”.

Take `Cc1noc(C)c1S(=O)(=O)Nc1ccc2c(c1)CC(=O)N([C@@H](C)CO)C[C@H](C)[C@H](CN(C)Cc1ccc(Oc3ccccc3)cc1)O2`: the cytotoxicity call with HSkMC and with HepG2 was “inactive” in each case. Besides, the growth inhibition call with S. aureus RN4220 is “inactive”.

As for `Cc1ccccc1OC(=O)c1sc2ccccc2c1Cl`, the cytotoxicity call in the assay with HSkMC and in the assay on HepG2 was “inactive” throughout. Besides, the growth inhibition call with S. aureus RN4220 is “inactive”.
